Test results published in PubChem BioAssay AID2147 (National Center for Advancing Translational Sciences (NCATS), 2009).
Out of some 230,000 compounds screened, about 3,600 (1.6%) were called active. This list was built around the results that the source calls inconclusive (neither active nor inactive); the mix of calls is not that of the screen. Calls come from the whole dose curve; as a rule, active = well fitted inhibition curve with a large enough effect (not every such curve was filed as active); inconclusive = small, poorly fitted or top-dose-only effect, or another doubt; inactive = no such curve, though single readings can be large or run the other way. Potencies of inconclusive entries are doubtful fits and often do not repeat.

Target: Lysine-specific demethylase 4E (Homo sapiens) (UniProt B2RXH2)
Test: qHTS Assay for Inhibitors of Human Jumonji Domain Containing 2E (JMJD2E)
Settings: JMJD2E catalytic domain, FDH-coupled NADH fluorescence (FDH is formaldehyde dehydrogenase); series mostly up to 57.1 µM
Note: nearly all actives have a fitted effect of over 50% in size.
Potency is the fitted concentration of half-maximal effect; tags give direction and shape of the fitted curve.
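Throughout, for activity change, negative = inhibition: 0% = wells with enzyme and -100% = buffer wells without enzyme.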

Chain of UniProt B2RXH2 (B2RXH2 whole entry, looked up, the tested form may be a part): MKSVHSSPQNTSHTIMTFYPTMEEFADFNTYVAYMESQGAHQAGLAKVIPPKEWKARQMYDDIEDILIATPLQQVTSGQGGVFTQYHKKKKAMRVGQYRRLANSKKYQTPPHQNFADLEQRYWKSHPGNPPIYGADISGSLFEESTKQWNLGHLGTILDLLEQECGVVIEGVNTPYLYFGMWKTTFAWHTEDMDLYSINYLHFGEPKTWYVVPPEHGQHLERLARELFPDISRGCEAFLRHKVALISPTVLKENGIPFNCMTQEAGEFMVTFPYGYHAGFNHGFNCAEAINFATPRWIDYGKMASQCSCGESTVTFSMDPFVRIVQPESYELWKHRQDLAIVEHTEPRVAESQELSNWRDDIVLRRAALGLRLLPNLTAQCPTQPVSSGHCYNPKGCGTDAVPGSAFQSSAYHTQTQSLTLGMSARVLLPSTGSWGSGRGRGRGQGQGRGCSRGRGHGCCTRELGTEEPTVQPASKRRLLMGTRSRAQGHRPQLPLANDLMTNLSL

| Structure (SMILES) | Potency | activity change, negative = inhibition |
| --- | --- | --- |
| Clc1ccc(OCc2nn3c(C4CCCCC4)nnc3s2)cc1 | inactive | – |
| O=C1NC(=O)[C@@H]2C3c4ccccc4C=CN3[C@H](C(=O)c3cccs3)[C@H]12 (stereo partly specified) | inconclusive: 35.5 µM [inhibitor, single point] | – |
| CCN(CC)CCCNc1oc(-c2ccc(OC)c(OC)c2)nc1C#N | active: 2.24 µM | – |
| COc1ccc2ccccc2c1/C=N/NC(=O)c1sc(N)c(C#N)c1C | inconclusive: 31.6 µM [inhibitor, single point] | – |
| COc1ccc(C(=O)NC(=S)NNC(=O)Cc2cccs2)cc1 | inconclusive: 39.8 µM [inhibitor, single point] | – |
| Cc1cc(C)cc(NC(=S)Nc2ccc(Cl)c(Cl)c2)c1 | inactive | – |
| CCOC(=O)CC(=O)CSc1nc2sc(C)cc2c(=O)n1Cc1ccco1 | inconclusive: 20 µM [inhibitor, single point] | – |
| COc1cc(OC)cc(-c2cc3nc(C)c(CCC(=O)NCc4ccccc4)c(C)n3n2)c1 | inconclusive: 31.6 µM [inhibitor, partial curve] | – |
| O=C(CN1CCC(C(=O)c2ccc3c(c2)OCCO3)CC1)NC1CCCC1 | inconclusive: 39.8 µM [inhibitor, single point] | – |
| O=C(Nc1cccnc1)c1ccc2nc(-c3ccccc3)c(-c3ccccc3)nc2c1 | inconclusive: 39.8 µM [inhibitor, single point] | – |
| Cn1c(-c2ccc3c(c2)OCO3)cnc1NCc1cccc(Cl)c1 | inconclusive: 28.2 µM [inhibitor, single point] | – |
| CC(C)c1nc2ccccc2n1CC(O)COC1CCCCC1 (stereo unspecified) | inconclusive: 39.8 µM [inhibitor, single point] | – |
| CCOC(=O)c1c(NC(=O)c2ccoc2C)sc2c1CCC2 | inconclusive: 28.2 µM [inhibitor, partial curve] | – |
| CCOC(=O)Cn1c(=NC(=O)CN2C(=O)CCC2=O)sc2cc(S(N)(=O)=O)ccc21 | inconclusive: 39.8 µM [inhibitor, single point] | – |
| Cn1nnc2cc(C(=O)Nc3ccc(Cl)cc3)ccc21 | inconclusive: 39.8 µM [inhibitor, single point] | – |
| Nc1ccccc1C(=O)CC(N)C(=O)O (stereo unspecified) | inconclusive: 28.2 µM [inhibitor, single point] | – |
| CCC(C)NC(=O)CSC1=Nc2ccccc2C2=NC(c3ccccc3)C(=O)N12 (stereo unspecified) | inconclusive: 28.2 µM [inhibitor, partial curve] | – |
| O=C(OCc1nnc(-c2ccccc2)o1)c1cc(S(=O)(=O)N2CCOCC2)c(Cl)cc1Cl | inactive | – |
| CCn1ncc(CN2CCN(C(=O)Nc3ccccc3C(=O)OC)CC2)c1C | inconclusive: 25.1 µM [inhibitor, partial curve] | – |
| COC(=O)c1c(C#N)c(N)nc2c1CCC2 | inconclusive: 31.6 µM [inhibitor, partial curve] | – |
| CC1CCCCN1CCCNC(=O)c1ccc2c(=O)n(CCc3ccccc3)c(=O)[nH]c2c1 (stereo unspecified) | inconclusive: 39.8 µM [inhibitor, single point] | – |
| COc1ccc(N2CCC(CNC(=S)Nc3cc(C)ccc3C)C2)cc1 (stereo unspecified) | inactive | – |
| O=C(N/N=C/c1ccccn1)c1c[nH]c2ccccc12 | inconclusive: 39.8 µM [inhibitor, single point] | – |
| CCOC(=O)c1c(/N=C/N(C)C)sc2c1CCC2 | inconclusive: 39.8 µM [inhibitor, single point] | – |

| Structure (SMILES) | Potency | activity change, negative = inhibition |
| --- | --- | --- |
| O=C1CC(C(=O)Nc2ccc(C(=O)O)cc2)C(c2ccccc2)O1 (stereo unspecified) | inconclusive: 31.6 µM [inhibitor, partial curve] | – |
| CCC1(C)CC2(CCCN(CCC(=O)c3ccccc3)C2)CCO1 (stereo unspecified) | inactive | – |
| O=C(CN1C(=O)S/C(=C\c2ccc(Cl)cc2)C1=O)NNC(=O)c1ccccc1O | active: 17.8 µM | – |
| CSc1ccc(Cl)c(C(=O)OCC(=O)Nc2ccccc2OC(F)F)c1 | inconclusive: 25.1 µM [inhibitor, partial curve] | – |
| Cc1ccc(Cn2nc3c(cc2=O)CCc2ccccc2-3)cc1 | inconclusive: 20 µM [inhibitor, single point] | – |
| COc1cc(O)c(C(C)=O)c(CC(=O)O)c1 | active: 25.1 µM | – |
| CCOC(=O)c1ccccc1NC(=O)c1n[nH]c(=O)c2ccccc12 | inconclusive: 2.24 µM [inhibitor, full curve] | – |
| O=C1c2ccsc2SCCN1Cc1c(Cl)cccc1Cl | inactive | – |
| COc1ccc(-c2nc(C#N)c(N3CCc4ccccc4C3)o2)cc1OC | inconclusive: 28.2 µM [inhibitor, partial curve] | – |
| CCOc1ccc(OCC)c(NC(=O)CN2CCN(c3cccc(C)c3)CC2)c1 | inconclusive: 35.5 µM [inhibitor, single point] | – |
| Cc1nc2c(C(=O)N3CCN(c4ccccn4)CC3)cnn2c(C)c1Cc1cccc(Cl)c1 | inconclusive: 28.2 µM [inhibitor, single point] | – |
| O=C(O)c1cc2nccc(-c3ccco3)n2n1 | inconclusive: 25.1 µM [inhibitor, partial curve] | – |
| COC1(OC)N=C(N)C2(C#N)C(c3cccc(Oc4ccccc4)c3)C12C#N (stereo unspecified) | inconclusive: 39.8 µM [inhibitor, single point] | – |
| Cc1cc(Nc2ccccc2)c2c([N+](=O)[O-])ccc(C)c2n1 | inactive | – |
| COCc1nnc(NC(=O)CSCc2ccccc2)s1 | inactive | – |
| COc1ccc(C(=O)NC(=S)NNC(=O)[C@H]2C[C@@H]2c2ccccc2)cc1OC | inconclusive: 39.8 µM [inhibitor, single point] | – |
| C/C(=N\NC(=S)NCc1ccccc1)c1ccccc1 | inactive | – |
| Cc1cc(C(=O)O)ccc1-n1c(C)cc(C=C2C(=O)c3ccccc3C2=O)c1C | inconclusive: 17.8 µM [inhibitor, partial curve, poor fit] | – |
| COc1ccc(CN2CCN(c3cccc(C)c3C)CC2)cc1OC | inconclusive: 25.1 µM [inhibitor, single point] | – |
| Cc1c(NC(=O)C(C)OC(=O)c2cc(-c3cccc4ccccc34)nc3ccccc23)c(=O)n(-c2ccccc2)n1C (stereo unspecified) | inconclusive: 11.2 µM [inhibitor, partial curve] | – |
| COc1ccc(-c2c(NC(=O)C(C)C)n(C)c3ccccc3c2=O)cc1 | inconclusive: 31.6 µM [inhibitor, partial curve] | – |
| COc1ccc2[nH]c(=O)c(CN(Cc3cccs3)Cc3nnnn3Cc3ccccc3)cc2c1 | inconclusive: 31.6 µM [inhibitor, partial curve] | – |
| CCCCC1=CC2=CC(=O)C(C)(OC(=O)CC)C(=O)C2=CN1CCc1ccc(Br)cc1 (stereo unspecified) | inconclusive: 25.1 µM [inhibitor, single point] | inactive: -15.3% [at 11.4 µM] |
| CCc1nc(N)c(C#N)c(-c2ccccc2OC)c1C | inconclusive: 20 µM [inhibitor, partial curve] | – |

| Structure (SMILES) | Potency | activity change, negative = inhibition |
| --- | --- | --- |
| CC(=O)/C(=N\Nc1ccccc1)Sc1nnc(-c2ccccc2)n1-c1ccccc1 | inactive | – |
| COc1ccc2oc(C(=O)CCC(=O)O)c(N)c2c1 | inconclusive: 28.2 µM [inhibitor, partial curve] | – |
| CCCS(=O)(=O)N1CCN(Cc2ccncc2)CC1 | inconclusive: 22.4 µM [inhibitor, single point] | – |
| CC(C)N1CC(O)=C(c2nc3ccccc3c(=O)[nH]2)C1=N | inconclusive: 22.4 µM [inhibitor, partial curve] | – |
| O=C(CCC1CCCN(C(=O)c2ccc3[nH]ccc3c2)C1)N1CCN(c2ccccn2)CC1 (stereo unspecified) | inconclusive: 31.6 µM [inhibitor, single point] | – |
| CCOCCCn1c(=NC(=O)c2cccs2)c(C#N)cc2c(=O)n3cccc(C)c3nc21 | inconclusive: 31.6 µM [inhibitor, partial curve] | – |
| CCOc1cc(C2CC(=O)NC3=C2C(=O)C(C(=O)OC)C(C)C3)cc(Cl)c1O (stereo unspecified) | inactive | – |
| O=C(COC(=O)c1ccc2c(c1)OCO2)Nc1ccccc1 | inconclusive: 39.8 µM [inhibitor, single point] | – |
| O=C(Nc1cccc(Cl)c1)Nc1cc(S(=O)(=O)N2CCOCC2)ccc1N1CCCC1 | inconclusive: 35.5 µM [inhibitor, partial curve] | – |
| CCOC(=O)c1[nH]c2ccc(OC)cc2c1NC(=O)NC(C)C | inconclusive: 31.6 µM [inhibitor, partial curve] | – |
| Oc1[nH]c2ccccc2c1N=Nc1ccccc1 | inactive | – |
| CC(NC(=O)c1noc2c1CCCC2)c1ccccc1 (stereo unspecified) | inactive | – |
| COC(=O)Nc1ccc2[nH]cc(CCNC(C)=O)c2c1 | inactive | – |
| Nc1nnc(CC(=O)N/N=C\c2cc([N+](=O)[O-])ccc2O)s1 | active: 14.1 µM | – |
| CC(C)(C)c1ccc(Oc2ccc(NC(=O)C3CC=CCC3C(=O)O)cc2)cc1 (stereo unspecified) | inactive | – |
| O=C(Nc1nc(-c2ccncc2)cs1)C1c2ccccc2Oc2ccccc21 | inactive | – |
| Cc1ccc(NC(=O)COC(=O)C(NS(=O)(=O)c2ccc(Cl)cc2)C(C)O)cc1C (stereo unspecified) | inactive | – |
| COC1C(O)C(O)C(O)C(O)C1O (stereo unspecified) | inactive | – |
| CC1=CC(C)(C)Nc2ccc(Cc3ccc4c(c3)C(C)=CC(C)(C)N4)cc21 | inconclusive: 25.1 µM [inhibitor, partial curve] | – |
| O=C(O)CN(c1ccc(F)cc1)S(=O)(=O)c1ccc2c(c1)OCCO2 | inactive | – |
| O=C(CSc1nc2c(sc3ccccc32)c(=O)n1CCCN1CCCC1)NCc1ccccc1 | inconclusive: 25.1 µM [inhibitor, partial curve] | – |
| CN(Cc1nccs1)C(=O)CC1C(=O)NCCN1Cc1ccc(-c2ccccc2)cc1 (stereo unspecified) | inconclusive: 39.8 µM [inhibitor, single point] | – |
